# Measured values: PubChem BioAssay AID1347434 (National Center for Advancing Translational Sciences (NCATS), 2020)
# Hit rate of the full screen: of about 1,200 compounds, about 30 (2%) were called active. Roughly 23% stayed inconclusive and do not appear here. The call rests on the fitted dose curve; in most records, active means well fitted inhibition curve with a large enough effect; inconclusive means small, poorly fitted or top-dose-only effect; inactive means flat fitted curve, though single readings scatter. The list shows a part of the results.
# Molecular target: Single-stranded DNA cytosine deaminase (Homo sapiens) (UniProt Q9GZX7)
# UniProt Q9GZX7, sequence (Q9GZX7 whole entry, looked up): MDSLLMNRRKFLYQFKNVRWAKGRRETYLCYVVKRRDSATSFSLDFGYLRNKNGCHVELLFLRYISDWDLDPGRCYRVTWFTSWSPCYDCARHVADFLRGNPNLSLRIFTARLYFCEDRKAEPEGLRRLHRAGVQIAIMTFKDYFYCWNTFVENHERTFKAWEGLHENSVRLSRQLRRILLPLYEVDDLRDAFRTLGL
# Assay: Confirmatory qHTS assay for inhibitors of Activation Induced Cytidine Deaminase (AID): AID signals
# Details: recombinant AID, FRET deamination/UDG coupled fluorescence, 4 h; series mostly up to 115 µM; activity, negative = inhibition: at the top concentration
# In short: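 Read 1 (AID) was measured at 540 ex/590 em after a 30 min NaOH step. The reaction was AID (1 uM, 4/3x stock) with UDG, compound at final 7.32 nM - 114 uM for 10 min, then DJC20/DJC23 substrate for 4 hr at room temperature. A UDG read at 560/665 serves as counterscreen.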
# On the % scale 0 is the no-effect control and ±100 the full control effect; potency means the concentration at half of the fitted maximal effect.
SMILES,"activity, negative = inhibition",Potency
Cn1nc(-c2ccc(C(=O)Nc3ccc(F)cc3)cc2)c2ccccc2c1=O,inactive: -28.5%,–
O=C(O)CSc1c2c(nc3cc(C(=O)Nc4ccc(F)c(Cl)c4)ccc13)CCC2,inactive: -9.98%,–
CCCN1CCN(CCCNC(=O)c2ccc3c(c2)sc2nc(-c4ccc(OCC)cc4)cn23)CC1,inactive: -14.1%,–
COc1ccc(OC)c(NC(=O)N2CC(C)Oc3ccc(C)cc32)c1 (stereo unspecified),inactive: -7.39%,–
Cc1ccc(OCC(=O)N(Cc2ccc(Cl)cc2)CC2CCCO2)cc1C (stereo unspecified),inactive: -15.7%,–
Cc1ccccc1Cn1c(CN2CCN(c3cc(Cl)ccc3C)CC2)nc2c1c(=O)[nH]c(=O)n2C,inactive: -3.76%,–
CCOc1ccccc1NC(=O)CSC1=Nc2ccccc2C2=NC(CC(=O)NC3CCCCC3)C(=O)N12 (stereo unspecified),inactive: -4.92%,–
CCOc1ccc(NC(=O)CN(C)S(=O)(=O)c2ccc3c(c2)c(=O)n(C)c(=O)n3C)cc1,inactive: 8.36%,–
Cc1ccc(C)c(CNC(=O)c2cnc3sc(N4CCCC4)nn3c2=O)c1,inactive: 3.74%,–
CCOC(=O)C1=C(CN(CC)Cc2ccccc2)NC(=O)NC1c1ccc(OC(C)C)cc1 (stereo unspecified),inactive: -13.7%,–
COc1ccc(CCN2CCC(CNC(=O)c3cnn(-c4ccccc4)c3C3CCN(C(=O)OC(C)(C)C)CC3)CC2)cc1,inactive: -15%,–
Cc1ccc(Cc2nc3ccccc3nc2SCC(=O)N2CCCCC2C)cc1 (stereo unspecified),inactive: -16.1%,–
Cc1cccn2c(=O)c3cc(C(=O)N(Cc4ccccc4)C(C)C)sc3nc12,inactive: -25.5%,–
CCN(CC)C(=O)C1CCCN(c2ncnc3c2c(-c2ccccc2)cn3-c2cccc(C)c2)C1 (stereo unspecified),inactive: -15%,–
CCC(C)NC(=O)c1cn(CC)c2ccc(S(=O)(=O)N3CCc4ccccc4C3)cc2c1=O (stereo unspecified),inactive: -23.3%,–
Cc1cccc(NC(=O)COc2ccc3oc4c(c3c2)CCCC4)c1,inactive: -2.46%,–
Cc1ccc(CNC(=O)CSCc2nc(-c3cccc(C)c3)oc2C)cc1,inactive: -11.1%,–
COc1ccccc1N1CCN(C(=O)c2cc3c(-c4ccccc4F)nn(C)c3s2)CC1,inactive: -21.4%,–
CCOc1cccc(C(=O)N(Cc2ccc(F)cc2)Cc2ccco2)c1,inactive: -12.4%,–
CCC(=O)N1CCc2cc(Br)cc(S(=O)(=O)CCC(=O)N(C)c3cccc(C)c3)c21,inactive: -4.64%,–
O=C1CC(c2nc3ccccc3n2CCC2CCCCC2)CN1c1ccccc1Cl (stereo unspecified),inactive: -8.71%,–
CC(=O)O[C@H]1C[C@@H]2CC[C@@H]3[C@H](CC[C@@]4(C)[C@H]3C[C@H]([N+]3(C)CCCCC3)[C@@H]4OC(C)=O)[C@@]2(C)C[C@@H]1[N+]1(C)CCCCC1,–,active: 17.8 µM
CCc1ccc(CNC(=O)CSCc2cnn(-c3ccccc3)c2-n2cccc2)cc1,inactive: -4.5%,–
COc1cccc(-c2nc(CS(=O)CC(=O)N3CCN(c4cccc(C(F)(F)F)c4)CC3)c(C)o2)c1 (stereo unspecified),inactive: -23.9%,–

SMILES,"activity, negative = inhibition",Potency
Cc1ccccc1Cc1c(C)nc2nc(SCC(=O)NC(C)c3ccccc3)nn2c1C (stereo unspecified),inactive: -11.1%,–
Cc1ccccc1-c1noc(CSc2nnc(Cc3ccccc3)n2-c2ccc(F)cc2)n1,inactive: -16.2%,–
COc1ccc(C(=O)c2cn(Cc3ccccc3F)c3ccc(F)cc3c2=O)cc1,inactive: -13.1%,–
CCCCOc1ccc(Cn2c(=O)sc3ccccc32)cc1,inactive: -2.57%,–
CCCCCn1c(=N)n(CC(O)COc2cccc(C)c2)c2ccccc21 (stereo unspecified),inactive: -25.8%,–
CCCN(CCC)CC(O)Cn1cc(/C=C/C(=O)c2ccc(OCC)cc2)c2ccccc21 (stereo unspecified),inactive: -22.5%,–
CCN(CC)CCOC(=O)c1ccc(NC(=O)CSc2cc(=O)n(CC)c3ccccc23)cc1,inactive: -2.43%,–
Cc1ccccc1Cn1c(SCc2ccc(C(=O)NC3CCCC3)cc2)nc2ccncc21,inactive: 2.54%,–
Cc1ccc(-n2cnc3cc(C(=O)NCc4ccccc4Cl)ccc32)c(C)c1,inactive: -15.4%,–
CCOC(=O)C1CCCN(C(=O)c2cc3c(Cl)nc4ccccc4c3s2)C1 (stereo unspecified),inactive: -0.274%,–
Fc1ccc(F)c(Nc2c3c(nc4ccc(Cl)cc24)CCC3)c1,inactive: -6.59%,–
O=C(c1ccccc1Cl)N1CCCC(c2nc3c(nnn3Cc3ccc(F)cc3F)c(=O)[nH]2)C1 (stereo unspecified),inactive: -4.39%,–
COc1ccc(-n2c(Cc3ccccc3)nnc2SCc2nc(-c3ccccc3C)no2)cc1,inactive: -18.2%,–
Cc1c(C(=O)N(C)c2ccccc2)sc2nc(-c3ccc(F)cc3)cn12,inactive: -19.3%,–
CCn1c(CN2CCCCC2)nc2cc(NC(=O)COc3cc(C)ccc3C(C)C)ccc21,inactive: -14.4%,–
COc1ccc(N2CCN(C(=O)c3cn(C4CCCCC4)c(=O)c4c3c3ccccc3n4C)CC2)cc1,inactive: -0.756%,–
COC(=O)c1ccc(Cl)cc1NC(=O)Nc1nnc(N(C)Cc2ccccc2)s1,inactive: -11.9%,–
COc1ccc(OC)c(-c2noc(N3CCN(c4cc(Cl)ccc4C)CC3)n2)c1,inactive: -4.51%,–
CCc1ccc(CNC(=O)C(CC)n2nc(C)c3c(C)n(-c4ccccc4)nc3c2=O)cc1 (stereo unspecified),inactive: -18.2%,–
O=C(CSc1nc2c([nH]c3ccccc32)c(=O)n1-c1ccccc1F)Nc1cccc(C(F)(F)F)c1,inactive: 1.59%,–
CCc1ccccc1-n1cnc2cc(C(=O)NC3CCCCCC3)ccc21,inactive: -15.9%,–
CCCn1c2ccccc2c2cnn(CC(=O)N(CC)c3cc(C)ccc3C)c(=O)c21,inactive: -19.6%,–
CCCCCOc1ccccc1CN1C(=O)C(=O)c2cc(C)ccc21,inactive: -12.2%,–
CCn1cc(C(=O)NCCc2ccc(OC)c(OC)c2)c(=O)c2cc(S(=O)(=O)N(C)C3CCCCC3)ccc21,inactive: -25.1%,–

SMILES,"activity, negative = inhibition",Potency
CCn1nc(C)c2c(-c3ccccc3)cc(=O)n(C(C)C(=O)NCc3ccccc3OC)c21 (stereo unspecified),inactive: -20.2%,–
Cc1cc(-c2ccccc2)n2nc(-c3ccccc3)cc2n1,inactive: 2.46%,–
Cc1ccc(NC(=O)N2CCN(c3cc(-c4noc(C)n4)ccc3C)CC2)c(F)c1,inactive: 0.707%,–
COc1ccc(OCCCn2c(=O)oc3ccc(C)cc32)cc1,inactive: -11.5%,–
Cc1ccc(C)c(N(C)C(=O)C2CCN(c3ncnc4c3nc3n4CCCCC3)CC2)c1,inactive: -0.379%,–
Cc1cc(C)n2c(Nc3ccc4c(c3)OCCO4)c(-c3ccccc3)nc2n1,inactive: -13.8%,–
Cc1cc(Cl)ccc1OCC(=O)N1CCC(c2nc3ccccc3o2)CC1,inactive: -13.5%,–
Cc1nc(-c2ccc(S(=O)(=O)N(Cc3ccccc3)C(C)C)cc2)co1,inactive: 0.0412%,–
Cc1ccccc1OCc1nnc(SCc2cc(=O)c3ccc(C)c(C)c3[nH]2)n1C,inactive: -24.7%,–
COc1ccc(Nc2nc3ccccc3nc2NS(=O)(=O)c2ccc(Cl)cc2)cc1OC,inactive: -2.97%,–
Cc1cc(C)c(NC(=O)CCCn2c(C)c3cnn(-c4ccccc4)c(=O)c3c2C)c(C)c1,inactive: -10.2%,–
Cc1ccc(C(=O)Nc2ccccc2C(=O)O)cc1S(=O)(=O)N1CCCCCC1,inactive: -18.5%,–
CCN(CCCNC(=O)c1cc2c(=O)[nH]c3ccc(C)cc3c2s1)Cc1ccccc1,inactive: -25.1%,–
COc1ccc(-c2cc(C(F)(F)F)nc(NCCc3ccccc3)n2)cc1,inactive: 1.2%,–
O=C(/C=C/c1cn(CC(O)CN2CCCCCC2)c2ccccc12)c1ccc(Br)cc1 (stereo unspecified),inactive: -13.7%,–
COc1cc2cc(CNc3ccccc3)c(=O)n(CC(=O)Nc3cc(C)cc(C)c3)c2cc1OC,inactive: 5.1%,–
CCCCN(CC)CCNC(=O)C1CCN(c2nnc(C)c3c(C)n(-c4ccc(C)cc4)nc23)CC1,inactive: -16.8%,–
Cc1ccc(CCNC(=O)c2ccc(CSc3nc4ccncc4n3Cc3ccc(F)cc3)cc2)cc1,inactive: -8.3%,–
Cc1ccc(Cl)cc1N1CCN(C(=O)c2cc(S(=O)(=O)N3CCCCC3)cn2C)CC1,inactive: -1.52%,–
Cc1ccc2ccc3cc(C(=O)Nc4ccc(C)c(F)c4)nc3c2[nH]1,inactive: 0.654%,–
Cn1c(=O)c2c(-c3ccccc3Br)n(Cc3ccccc3)cc2n(C)c1=O,inactive: -15.5%,–
CCOC(=O)C1=C(CN(C)Cc2ccccc2)NC(=O)NC1c1ccc(OC(C)C)cc1 (stereo unspecified),inactive: -14.6%,–
Cc1c(NC(=O)c2ccc(-c3ccc(F)cc3)o2)cccc1-c1nc2ncccc2o1,inactive: -17.3%,–
